Source: PubChem BioAssay AID1508642 (National Center for Advancing Translational Sciences (NCATS), 2021)
Among all 43,000 compounds or so, about 200 (0.47%) were called active. Roughly 12% stayed inconclusive and do not appear here. Calls come from the whole dose curve; as a rule, active = well fitted cell-killing curve with a large enough effect; inconclusive = small, poorly fitted or top-dose-only effect, or effect the other way; inactive = flat fitted curve, though single readings scatter. The list shows a part of the results.

Assay: Cell viability qHTS assay in S16 Pmp22-F2sN cells; note: nearly all actives have a fitted effect of over 65% in size
Conditions: S16 Pmp22-F2sN Schwann cells (luciferase reporters placed in the Pmp22 gene) viability, CellTiter-Glo, 24 h; series mostly up to 57.5 µM; activity change, negative = cytotoxicity: at the top concentration
Summary of the method: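 Seed 500-1,000 S16 Pmp22-F2sN cells per well in phenol-red-free DMEM with 10% heat-inactivated FBS; pin-add 23 nL compound; incubate 24 h at 37C; add CellTiter-Glo, wait 15 min protected from light; read luminescence.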
% is set by controls: 0 for no effect and ±100 for the full control effect.

Structure (SMILES)	activity change, negative = cytotoxicity
Cc1ccccc1NC(=O)Cn1c(SCC(=O)Nc2ccc(F)cc2)nc2ccccc21	inactive: 1.77%
Cc1c(-c2nc(-c3ccc4c(c3)OCO4)no2)nnn1-c1ccc(Br)cc1F	inactive: 1.8%
O=C(O)c1ccc(CNCc2ccc(Cl)cc2)s1	inactive: -1.07%
CCOC(=O)c1c(NC(=O)c2nc(SCC)ncc2Cl)sc(C(C)=O)c1C	inactive: 5.37%
Cc1ccc(CNC(=O)Cc2c(C)c3cc4c(C)coc4cc3oc2=O)cc1	inactive: 21.5%
O=C(COc1ccccc1Cl)OCc1cc(=O)n2nc(-c3cccs3)sc2n1	inactive: -16.5%
CCOc1ccc(NC(=O)c2cc(S(=O)(=O)N3CCCCCC3)cn2C)cc1	inactive: -2.71%
Cc1c2cnn(-c3ccccc3)c(=O)c2c(C)n1CC(=O)NCCc1ccc(Cl)cc1	inactive: 0.395%
COc1ccc2c(c1)c1c(c(=O)n(-c3ccc(F)c(Cl)c3)c(=O)n1CC(=O)N1CCCC1)n2C	inactive: -12.8%
CCc1ccc(NC(=O)CN2CCCN(Cc3cccc(Cl)c3)S2(=O)=O)cc1	inactive: 14.4%
COC(=O)c1cc2sc(C)cc2n1CC(=O)Nc1ccc(C)c(C)c1	inactive: -14.9%
CC(=O)N1CCc2c(sc3c2c(=O)n(-c2ccccc2)c(=O)n3CC(=O)Nc2ccccc2)C1	inactive: 4.9%
COc1cc(CNC(=O)c2ccc3c(c2)N(C)C(=O)C2CCCCN32)cc(OC)c1OC (configuration not stated)	inactive: -3.5%
O=C(NCCc1ccc(Cl)cc1)C1CCN(c2ncnc3c2nc2n3CCCCC2)CC1	inactive: -3.29%
COc1ccccc1-c1nnc(SCC(=O)Nc2ccccc2F)o1	inactive: 1.4%
CC(=O)N1c2ccc(S(=O)(=O)NCC3CCC(C(=O)Nc4ccc(C)cc4)CC3)cc2CC1C (configuration not stated)	inactive: -0.283%
CN(Cc1ccco1)C(=O)c1ccc2c(c1)N(Cc1ccccc1F)C(=O)c1ccccc1S2	inactive: 4.22%
Cc1ccc(-n2c(=O)c3c4c(sc3n(CC(=O)c3ccc(Cl)cc3)c2=O)CCC4)cc1C	inactive: 3.01%
Cc1nc2nc(NC(=O)c3ccccc3F)[nH]n2c(=O)c1Cl	inactive: -0.416%
CC(=O)Nc1cccc(NC(=O)CN2C(=O)CCSc3ccccc32)c1	inactive: 20.3%
O=C(Nc1ccc2oc(-c3ccc(O)c(Br)c3)nc2c1)c1cc2ccccc2o1	inactive: 8.06%
COc1ccc(C2C=C(c3cccc(OC)c3)Nc3c(C(=O)Nc4ccccc4)cnn32)cc1 (configuration not stated)	inactive: -5.75%
CCn1c2c(c(=O)n3ncc(C(=O)Nc4cc(Cl)ccc4C)c13)CN(Cc1ccc(OC)cc1)CC2	inactive: -8.46%
Cc1ccn2c(Nc3ccc(C(C)C)cc3)c(-c3cccs3)nc2c1	inactive: -5.76%
COc1cc(OC)c(NC(=O)C2=C(C)C(=O)OC23CCCCCC3)cc1Cl	inactive: -6.47%

Structure (SMILES)	activity change, negative = cytotoxicity
O=C(CSc1nnc(-c2cccc(Cl)c2)o1)N1CCc2ccccc21	inactive: 3.71%
CC(C)CN(CCCNC(=O)c1cc(=O)[nH]c2ccc(S(=O)(=O)N3CCCCCC3)cc12)CC(C)C	inactive: -7.65%
CC(=O)N1c2nc(C(C)C)nn2C2(CCCCC2)[C@@H]2CCCC[C@@H]21	inactive: -2.37%
CCOc1ccc2oc(=O)cc(CN3CCN(c4cc(C)ccc4C)CC3)c2c1	inactive: 23.7%
Cc1ccc(NC(=O)c2nc(S(C)(=O)=O)ncc2N(Cc2ccccc2)Cc2ccco2)c(C)c1	inactive: -1.53%
Cc1c(NC(=O)c2cc([N+](=O)[O-])ccc2N2CCOCC2)cccc1-c1nc2ccccc2o1	inactive: -8.81%
CN(C)CCNC(=O)C1CCN(c2nc3ccccc3[nH]2)CC1	inactive: 14.6%
COc1ccc(NC(=O)Nc2nnc(N3CCCCCC3)s2)cc1	inactive: 4.43%
Cc1ccc(CNC(=O)Cn2c3ncccc3c(=O)n2-c2ccccc2)cc1	inactive: -5.51%
O=C(CSc1ccc(-c2ccccn2)nn1)Nc1ccc(F)c(F)c1	inactive: -2.58%
Cc1nn(-c2ccc(F)cc2)c(-n2cccc2)c1C(=O)N1CCN(c2ccc(F)cc2)CC1	inactive: -1.82%
COc1ccc(NC(=O)c2nnn(Cc3ccccc3C)c2N)c(OC)c1	inactive: -16.8%
Cc1ccc(C(=O)Nc2c(-c3ccccc3)nc3ccccn23)cc1C	inactive: -0.822%
CCOc1ccc(NC(=O)c2ccc(NC(=O)CCS(=O)(=O)c3cccs3)cc2)cc1	inactive: 11.9%
COc1cc(OC)c(NC(=O)c2c(C)oc3ncn(C)c(=O)c23)cc1Cl	inactive: 4.44%
CCOc1ccc(CCNC(=O)CCc2c(C)nc3c(c(C)nn3-c3ccccc3)c2C)cc1OCC	inactive: 5.11%
CCn1cc(C(=O)N2CCN(c3cccc(Cl)c3)CC2)c(=O)c2cc(S(=O)(=O)N3CCOCC3)ccc21	inactive: 0.878%
Cc1ccc(Cc2nc3ccccc3nc2SCC(=O)N2CCc3ccccc32)cc1	inactive: 5.85%
COC(=O)c1ccc(Cl)cc1NC(=O)N1CC=C(c2c[nH]c3ccccc23)CC1	inactive: -28%
COc1ccc(N2CCN(C(=O)c3cc4c(-c5ccccc5F)nn(C)c4s3)CC2)cc1	inactive: -17.8%
O=C(Cn1ncc2c(=O)oc3ccccc3c21)Nc1cc(F)ccc1F	inactive: 11.9%
CC1CCN(S(=O)(=O)c2ccc3c(c2)N(CC(=O)NCc2ccccc2)C(=O)CO3)CC1	inactive: 2.86%
COc1ccc2c(CNCC(C)c3ccccc3)c(C(=O)O)n(Cc3ccc(F)cc3Cl)c2c1 (configuration not stated)	inactive: 15.6%
COc1ccc(/C=C(\C#N)c2nc(-c3cc(Cl)ccc3OC)cs2)cc1	inactive: 6.68%
O=C1CS(=O)(=O)C2(C(=O)N(Cc3cccc(F)c3)c3ccccc32)N1c1ccccc1 (configuration not stated)	inactive: 3.27%

Structure (SMILES)	activity change, negative = cytotoxicity
O=C(CSc1nc2nccnc2c(=O)n1CCc1c[nH]c2ccccc12)Nc1ccccc1F	inactive: 0.481%
Oc1ccccc1Nc1nc(-c2ccccc2)c2cc(Cl)ccc2n1	inactive: 1.55%
Cc1cccc(OCCCC(=O)Nc2sc3c(c2C(N)=O)CCC(C)C3)c1 (configuration not stated)	inactive: -19.9%
Cc1nn(CC(=O)NCc2ccco2)c(=O)c2cc3ccccc3n12	inactive: 13.7%
CCc1ccccc1N(C)C(=O)c1cn(CC(C)C)c(=O)c2cc(OC)c(OC)cc12	inactive: -5.84%
Cc1cccc(NC(=O)Nc2nnc(N(C)C3CCCCC3)s2)c1C	inactive: -1.75%
O=C(CCC(=O)N1Cc2ccccc2Oc2ncccc21)Nc1ccc(Cl)cc1	inactive: -2.19%
COc1ccc(-c2nn(CC(=O)NC3CCCC3)c3c2cnc2ccc(F)cc23)cc1	inactive: 12.4%
Cc1ccc(N2CC3=C(C2=O)C(c2ccc(Br)cc2)NC(=O)N3C)cc1 (configuration not stated)	inactive: 9.42%
CC(C)c1ccc(NS(=O)(=O)c2ccc3[nH]cc(C(=O)NC4CCCC4)c(=O)c3c2)cc1	inactive: 1.11%
O=C1Cc2cc(S(=O)(=O)N3CCN(c4ccccc4)CC3)ccc2N1	inactive: 0.701%
Cc1ccccc1Nc1sc(C(=O)c2ccc3c(c2)OCO3)c(N)c1S(=O)(=O)c1ccccc1	inactive: -5.77%
Cc1ccc(-c2nc(C(=O)NCc3ccc(Cl)cc3)c3n2CCCCC3)cc1	inactive: 21.8%
O=C(Cn1c(=O)oc2cc(S(=O)(=O)N3CCCCCC3)ccc21)Nc1cccc(C(F)(F)F)c1	inactive: 2.47%
CCn1c(SCc2ccccc2)nnc1-c1nonc1NC(C)=O	inactive: -3.4%
CCC(=O)N1CCc2cc(Br)cc(S(=O)(=O)NCCc3ccc(OC)c(OC)c3)c21	inactive: 5.74%
CC(=O)C1=C(OC(=O)C(C)C)c2ccccc2S(=O)(=O)N1Cc1ccccc1	inactive: -2.76%
O=C(NCCCc1nc2ccccc2n1Cc1ccccc1Cl)C1CCCCC1	inactive: -6.17%
Cc1ccc(CNC(=O)CC2Oc3ccccc3NC2=O)cc1 (configuration not stated)	inactive: 21.2%
CCN(C(=O)CSc1nc2ccccc2n1CC(=O)Nc1cccc(C#N)c1)c1ccccc1	inactive: -13.5%
CCOC(=O)C1CCCN(C(=O)Cn2ncc3c([nH]c4ccccc43)c2=O)C1 (configuration not stated)	inactive: -2.81%
COc1ccc(C(CC(=O)Nc2ccc(F)c(Cl)c2)N2Cc3ccccc3C2=O)cc1OC (configuration not stated)	inactive: -1.38%
COc1cc(C(=O)N(Cc2ccc(C(C)C)cc2)C2CCS(=O)(=O)C2)cc(OC)c1OC (configuration not stated)	inactive: -17.4%
CCOc1ccc(CCNC(=O)c2ccc3c(c2)c(C)c(C)n3C)cc1	inactive: -0.121%
COC(=O)c1ccc(NC(=O)CSc2nc(=O)n(Cc3ccco3)c3c2CCC3)cc1	inactive: -11%

Structure (SMILES)	activity change, negative = cytotoxicity
Cc1ccccc1C(=O)N1CCC(c2nc3ccccc3s2)CC1	inactive: -13.9%
Cc1cccc(-c2nc(SCc3ccc(Br)cc3)n3[nH]c(=O)cc3n2)c1	inactive: -1.7%
Cn1nc(C(=O)Nc2cc(F)ccc2F)c2c1-c1ccccc1SC2	inactive: -0.176%
CC1CCCCN1c1csc2ccc(F)cc2c1=O (configuration not stated)	inactive: 2.48%
CSc1nc2sc3c(c2c(=O)n1-c1ccc(C)c(Cl)c1)CCN(C(C)=O)C3	inactive: 12.3%
Cn1c(=O)c2c(-c3ccc(Cl)cc3)n(Cc3ccccc3)cc2n(C)c1=O	inactive: 1.78%
O=C(O)Cn1nnc(-c2ccc(OCc3cccc(C(F)(F)F)c3)cc2)n1	inactive: 8.93%
CCOC(=O)c1[nH]c(C)c(CCC(=O)NCc2ccc(N(C)C)cc2)c1C	inactive: 7.53%
COc1ccc(Cn2c(CCC(=O)NCc3cccc(Cl)c3)nc3cccnc32)cc1	inactive: -15.6%
COc1cccc(/C=C/c2nc(C#N)c(NCCN(C)C)o2)c1	inactive: 5.15%
COc1cccc(NC(=O)C2CCC(CNS(=O)(=O)c3ccc4c(c3)CC(C)N4C(C)=O)CC2)c1 (configuration not stated)	inactive: -23.6%
CCOC(=O)c1cc(S(=O)(=O)Nc2ccc(C)cc2Cl)[nH]n1	inactive: 0.0911%
O=C(CSc1nccn1Cc1ccco1)Nc1ccc(F)cc1	inactive: 14.8%
COc1ccc(CNC(=O)CSc2nc3ccccc3nc2Cc2ccccc2)cc1	inactive: 11.2%
CN(C(=O)CSc1nc2ccc(NC(=O)COc3ccc(Cl)cc3)cc2s1)c1ccccc1	inactive: -7.06%
CCCOc1cccc(NC(=O)c2c(-c3ccccc3Cl)noc2C)c1	inactive: 0.93%
O=S(=O)(Nc1ccccc1C(F)(F)F)c1ccc(N2CCCCS2(=O)=O)cc1	inactive: 7.6%
COc1ccc(OC)c(NC(=O)Cn2cnc3ccc(S(=O)(=O)N4CCC(C)CC4)cc3c2=O)c1	inactive: 1.08%
CN(Cc1ccccc1)C(=O)c1ccc2c(c1)N(Cc1ccccc1F)C(=O)c1ccccc1S2(=O)=O	inactive: 1.22%
O=C(Nc1cc(-c2nc3ccccc3s2)ccc1Cl)c1cc2ccccc2o1	inactive: 9.15%
Cc1cc(C)c2oc(C(=O)Nc3ccc(S(=O)(=O)N4CCCCC4)cc3)cc(=O)c2c1	inactive: 6.68%
Cc1ccc(Cl)cc1-n1c(=O)cc(N2CCN(c3ccc(F)cc3)CC2)[nH]c1=O	inactive: -6.91%
